In paper PMC9911399, “Two distinct binding modes provide the RNA-binding protein RbFox with extraordinary sequence specificity”:
Numbering of substitutions follows the chain as printed; changes in the protein carry UniProt numbers. Some of the results follow.

T1: RBFOX1 RRM RbFoxmut (Fox-RRM*) (Homo sapiens, UniProt Q9NWB1 109-208, R118D;E147R;N151S;E152T)
T1 sequence: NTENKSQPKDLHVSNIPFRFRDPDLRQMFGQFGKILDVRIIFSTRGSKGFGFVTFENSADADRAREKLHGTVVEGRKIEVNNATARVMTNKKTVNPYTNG

B1: CAUACAG (DNA:RNA)
RNA: GGGAGACCGGAAUUCAGAUUGUCCCAUACAGUUAAAUCCCGUCGUAGCCACCA
DNA 1: CAATCTGAATTCCGGTCTCCC
DNA 2: TGGTGGCTACGACGGGATT
B2: UGGAUGC (DNA:RNA)
RNA: B1 RNA with C25U, A26G, U27G, C29U, A30G, G31C
DNA 1: CAATCTGAATTCCGGTCTCCC
DNA 2: TGGTGGCTACGACGGGATT
B3: CCUCCCU (DNA:RNA)
RNA: B1 RNA with A26C, A28C, A30C, G31U
DNA 1: CAATCTGAATTCCGGTCTCCC
DNA 2: TGGTGGCTACGACGGGATT
B4: CCAUGCU (DNA:RNA)
RNA: B1 RNA with A26C, U27A, A28U, C29G, A30C, G31U
DNA 1: CAATCTGAATTCCGGTCTCCC
DNA 2: TGGTGGCTACGACGGGATT
B5: GUAGGUC (DNA:RNA)
RNA: GGGAGACCGGAAUUCAGAUUGUCCGUAGGUCUUAAAUCCCGUCGUAGCCACCA
DNA 1: CAATCTGAATTCCGGTCTCCC
DNA 2: TGGTGGCTACGACGGGATT
B6: UAAGUUU (DNA:RNA)
RNA: B5 RNA with G25U, U26A, G29U, C31U
DNA 1: CAATCTGAATTCCGGTCTCCC
DNA 2: TGGTGGCTACGACGGGATT
B7: UGUCGAC (DNA:RNA)
RNA: B1 RNA with C25U, A26G, A28C, C29G, G31C
DNA 1: CAATCTGAATTCCGGTCTCCC
DNA 2: TGGTGGCTACGACGGGATT
B8: ACGUAUA (DNA:RNA)
RNA: B5 RNA with G25A, U26C, A27G, G28U, G29A, C31A
DNA 1: CAATCTGAATTCCGGTCTCCC
DNA 2: TGGTGGCTACGACGGGATT
B9: UCCCAAA (DNA:RNA)
RNA: B1 RNA with C25U, A26C, U27C, A28C, C29A, G31A
DNA 1: CAATCTGAATTCCGGTCTCCC
DNA 2: TGGTGGCTACGACGGGATT
B10: AACGGCU (DNA:RNA)
RNA: B5 RNA with G25A, U26A, A27C, U30C, C31U
DNA 1: CAATCTGAATTCCGGTCTCCC
DNA 2: TGGTGGCTACGACGGGATT
B11: UGGGCCG (DNA:RNA)
RNA: B1 RNA with C25U, A26G, U27G, A28G, A30C
DNA 1: CAATCTGAATTCCGGTCTCCC
DNA 2: TGGTGGCTACGACGGGATT
B12: GCAGUAA (DNA:RNA)
RNA: B5 RNA with U26C, G29U, U30A, C31A
DNA 1: CAATCTGAATTCCGGTCTCCC
DNA 2: TGGTGGCTACGACGGGATT
B13: UUUUUCC (DNA:RNA)
RNA: B5 RNA with G25U, A27U, G28U, G29U, U30C
DNA 1: CAATCTGAATTCCGGTCTCCC
DNA 2: TGGTGGCTACGACGGGATT
B14: UCAACAG (DNA:RNA)
RNA: B1 RNA with C25U, A26C, U27A
DNA 1: CAATCTGAATTCCGGTCTCCC
DNA 2: TGGTGGCTACGACGGGATT
B15: UGUGUAU (DNA:RNA)
RNA: B1 RNA with C25U, A26G, A28G, C29U, G31U
DNA 1: CAATCTGAATTCCGGTCTCCC
DNA 2: TGGTGGCTACGACGGGATT
B16: GCUGUGC (DNA:RNA)
RNA: B5 RNA with U26C, A27U, G29U, U30G
DNA 1: CAATCTGAATTCCGGTCTCCC
DNA 2: TGGTGGCTACGACGGGATT
B17: ACAGGAG (DNA:RNA)
RNA: B5 RNA with G25A, U26C, U30A, C31G
DNA 1: CAATCTGAATTCCGGTCTCCC
DNA 2: TGGTGGCTACGACGGGATT
B18: GUGAGGC (DNA:RNA)
RNA: B5 RNA with A27G, G28A, U30G
DNA 1: CAATCTGAATTCCGGTCTCCC
DNA 2: TGGTGGCTACGACGGGATT
B19: ACAAGCC (DNA:RNA)
RNA: B5 RNA with G25A, U26C, G28A, U30C
DNA 1: CAATCTGAATTCCGGTCTCCC
DNA 2: TGGTGGCTACGACGGGATT
B20: GGGACAC (DNA:RNA)
RNA: B1 RNA with C25G, A26G, U27G, G31C
DNA 1: CAATCTGAATTCCGGTCTCCC
DNA 2: TGGTGGCTACGACGGGATT

target: T1, RBFOX1 RRM RbFoxmut (Fox-RRM*); test: EMSA; HiTS-Eq, 1 nM pool, 10 min; buffer printed only for the single-RNA assays: 10 mM Tris pH 7.5, 150 mM NaCl, 3.4 mM EDTA, 0.001% NP-40, 30 C; settings: tags: His6 N-terminal (pET28a); label: 5' 32P
How it was run: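 Relative association constants, normalised to the cognate motif, were derived by comparing read counts of each RNA species with those of the control reaction. The RNA sequenced was the free fraction, separated by 8% native PAGE after a 10 min equilibration in 50 µL of 1 nM 5′-radiolabelled RNA (7 randomized nucleotides) with increasing concentrations of purified wild-type or mutant RbFox RRM.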

Binder	binding signal
B1	0.0983 KA relative to UGCAUGU
B2	0.438 KA relative to UGCAUGU
B3	0.0469 KA relative to UGCAUGU
B4	0.1 KA relative to UGCAUGU
B5	0.156 KA relative to UGCAUGU
B6	0.0917 KA relative to UGCAUGU
B7	0.0944 KA relative to UGCAUGU
B8	0.148 KA relative to UGCAUGU
B9	0.055 KA relative to UGCAUGU
B10	0.0834 KA relative to UGCAUGU
B11	0.215 KA relative to UGCAUGU
B12	0.0991 KA relative to UGCAUGU
B13	0.0338 KA relative to UGCAUGU
B14	0.0843 KA relative to UGCAUGU
B15	0.209 KA relative to UGCAUGU
B16	0.151 KA relative to UGCAUGU
B17	0.103 KA relative to UGCAUGU
B18	0.0946 KA relative to UGCAUGU
B19	0.054 KA relative to UGCAUGU
B20	0.0733 KA relative to UGCAUGU
